The record followed here is the antibiotic and cytotoxicity screens of Wong et al. (2023).

The list shows a part of the results.

For the first assay, the system named is HSkMC (human skeletal muscle cells). Put plainly: cytotoxicity call (relative viability < 0.9). The settings on record: 10 µM.
Regarding `Cc1noc(C)c1NC(=O)Nc1ccc2c(c1)CC(=O)N([C@H](C)CO)C[C@@H](C)[C@H](CN(C)S(=O)(=O)c1ccccc1)O2`, the cytotoxicity call was “inactive”. As to `Cc1noc(C)c1S(=O)(=O)Nc1ccc2c(c1)C(=O)N([C@@H](C)CO)C[C@@H](C)[C@@H](CN(C)S(=O)(=O)c1cn(C)cn1)OCCCC[C@H](C)O2`, the cytotoxicity call is “inactive”.

As to `COC(CNC(=O)C1CCN(S(=O)(=O)c2cccc3nsnc23)CC1)OC`, the cytotoxicity call was “inactive”.

As to `Cc1noc(C)c1S(=O)(=O)N(C)C[C@@H]1Oc2ccc(NS(=O)(=O)c3cccs3)cc2CC(=O)N([C@@H](C)CO)C[C@@H]1C`, the cytotoxicity call was “inactive”.

Regarding `COc1ccc(S(=O)(=O)Nc2cccc3c2O[C@@H](CN(C)C(=O)NC(C)C)[C@@H](C)CN([C@@H](C)CO)C3=O)cc1`, the cytotoxicity call was “inactive”.

For `Cc1ccc(S(=O)(=O)Nc2ccc3c(c2)CC(=O)N([C@H](C)CO)C[C@@H](C)[C@H](CN(C)Cc2ccc(Cl)c(Cl)c2)O3)cc1`, the cytotoxicity call is “inactive”. The same measure, in the same setting: in the case of `COc1ccc(NC(=O)N(C)C[C@@H]2OCCCC[C@@H](C)Oc3ccc(NS(=O)(=O)c4ccc(Cl)cc4)cc3C(=O)N([C@@H](C)CO)C[C@@H]2C)cc1` it was “inactive”; in that of `C[C@@H]1CCCCO[C@@H](CN(C)Cc2ccccc2)[C@H](C)CN([C@@H](C)CO)C(=O)c2cc(NC(=O)CCC(F)(F)F)ccc2O1`, “inactive”.

For the molecule `COc1ccc(S(=O)(=O)Nc2ccc3c(c2)C(=O)N([C@@H](C)CO)C[C@H](C)[C@H](CN(C)C(=O)Nc2c(C)noc2C)O3)cc1`, the cytotoxicity call is “inactive”.

As for `Cl.NCCCC(N)(C(=O)O)C(F)F.O` (stereo not given), the cytotoxicity call is “inactive”.

A further assay has as its system HepG2. The assay is described as follows: cytotoxicity call (relative viability < 0.9). The settings on record: 10 µM.
For `COc1ccc([C@@H]([C@H](Cc2ccccc2)OC(C)=O)N2C[C@@H]3C(=NO[C@@H]3[C@@H](O)c3ccccc3)[C@@H]2Cc2ccccc2)cc1`, the cytotoxicity call was “inactive”. Same read-out and setting: next, `C[C@@H]1CCCCO[C@@H](CN(C)S(=O)(=O)c2cccs2)[C@@H](C)CN([C@@H](C)CO)C(=O)c2cc(NS(=O)(=O)c3cn(C)cn3)ccc2O1`: “inactive”; `CCCNC(=O)N(C)C[C@H]1Oc2cc(-c3ccc(C)cc3)ccc2S(=O)(=O)N([C@H](C)CO)C[C@H]1C`: “inactive”; `Cc1noc(C)c1S(=O)(=O)N(C)C[C@@H]1OCCCC[C@H](C)Oc2ccc(NC(=O)Nc3ccccc3)cc2C(=O)N([C@H](C)CO)C[C@H]1C`: “active”. The same measure, in the same setting: next, `C[C@H](CO)N1C[C@H](C)[C@@H](CN(C)Cc2ccc(Cl)c(Cl)c2)OCc2ccccc2-c2ccccc2C1=O`: “inactive”; `O=c1c(O)c(-c2ccccc2)oc2cc(O)ccc12`: “inactive”; `COc1ccc([C@@H]([C@H](Cc2ccccc2)OC(C)=O)N2C[C@@H](OC(C)=O)[C@H]3C(=NO[C@@H]3c3ccccc3)[C@@H]2Cc2ccccc2)cc1`: “inactive”.

On to `CC(C)NC(=O)N(C)C[C@@H]1Oc2c(NC(=O)C3CCOCC3)cccc2C(=O)N([C@@H](C)CO)C[C@H]1C`, for which the cytotoxicity call is “inactive”. On to `CC[N+](CC)(CC)CCOc1ccc(/C=C/c2ccccc2)cc1`, for which the cytotoxicity call was “inactive”. Turning to `C[C@@H]1CCCCO[C@H](CN(C)Cc2ccncc2)[C@H](C)CN([C@@H](C)CO)C(=O)c2cc(NC(=O)C3CCCCC3)ccc2O1`, the cytotoxicity call was “active”. The same measure, in the same setting: in the case of `CCCN(C)C[C@H]1OCCCC[C@H](C)Oc2ccc(NC(=O)NC3CCCCC3)cc2C(=O)N([C@@H](C)CO)C[C@H]1C` it was “inactive”; in that of `C[C@H](CO)N1C[C@H](C)[C@H](CN(C)Cc2ccc(Oc3ccccc3)cc2)Oc2ccc(NC(=O)Nc3ccccc3)cc2C1=O`, “inactive”; in that of `C[C@H](CO)N1C[C@H](C)[C@H](CN(C)C(=O)NC2CCCCC2)Oc2ccc(NC(=O)CCN3CCOCC3)cc2CC1=O`, “inactive”. `C[C@@H]1CN([C@H](C)CO)C(=O)Cc2cc(NS(=O)(=O)c3ccccc3)ccc2O[C@H]1CN(C)Cc1ccc(Oc2ccccc2)cc1`: the cytotoxicity call is “active”. Still for that read-out and setting: next, `CO[C@@H]1CN(C)C(=O)c2cc(NC(=O)C3CCOCC3)ccc2OC[C@@H](C)N(C(=O)Nc2ccc(C(F)(F)F)cc2)C[C@H]1C`: “inactive”; `C[C@@H]1CCCCO[C@H](CN(C)Cc2ccc(C(=O)O)cc2)[C@H](C)CN([C@@H](C)CO)C(=O)c2cc(NS(=O)(=O)c3ccc(Cl)cc3)ccc2O1`: “inactive”. Same read-out and setting: next, `C[C@@H]1CN([C@@H](C)CO)C(=O)c2cc(NC(=O)CCC(F)(F)F)ccc2O[C@@H](C)CCCCO[C@@H]1CN(C)CC1CCCCC1`: “inactive”.

Consider `CNC[C@@H]1Oc2ccc(NC(=O)Cn3cnnn3)cc2CC(=O)N([C@H](C)CO)C[C@@H]1C`, for which the cytotoxicity call is “inactive”. Turning to `CC(C)C#Cc1ccc2c(c1)O[C@H](CN(C)C(=O)c1cccc(F)c1)[C@@H](C)CN([C@H](C)CO)S2(=O)=O`, the cytotoxicity call was “inactive”. With `C[C@@H]1CCCCO[C@H](CN(C)S(=O)(=O)c2ccc(Cl)cc2)[C@@H](C)CN([C@@H](C)CO)C(=O)c2cc(NC(=O)Nc3ccccc3)ccc2O1`, the cytotoxicity call is “inactive”. On the same count and under the same terms, next, `C[C@@H]1CCCCO[C@H](CN(C)C(=O)Nc2ccc3c(c2)OCO3)[C@H](C)CN([C@@H](C)CO)C(=O)c2cc(NC(=O)Nc3cccc4ccccc34)ccc2O1`: “inactive”.

`COc1ccc(S(=O)(=O)Nc2ccc3c(c2)CC(=O)N([C@@H](C)CO)C[C@@H](C)[C@H](CN(C)S(=O)(=O)c2ccc(C)cc2)O3)cc1`: the cytotoxicity call was “inactive”. With `O=C(NCc1ccccc1)c1cn[nH]n1`, the cytotoxicity call was “inactive”.

On to `CCNC(=O)C[C@H]1CC[C@@H]2[C@@H](COc3ccc(NS(=O)(=O)c4ccccc4C)cc3C(=O)N2C)O1`, for which the cytotoxicity call was “inactive”. On the same count and under the same terms, next, `Cc1ccc(S[C@]2(C(=O)NC(C)C)CC(=O)N(Cc3ccccc3C(F)(F)F)[C@@H]2c2ccc(CO)cc2)cc1`: “inactive”; `NCc1ccccc1`: “inactive”. In the case of `C[C@@H]1CCCCO[C@@H](CN(C)C(=O)Nc2ccc(F)cc2)[C@H](C)CN([C@H](C)CO)C(=O)c2cc(NS(=O)(=O)c3cccs3)ccc2O1`, the cytotoxicity call is “inactive”. As to `CNc1nc(OC)cc(OC)n1`, the cytotoxicity call was “inactive”.

Turning to `CNC(=O)C[C@H]1CC[C@H]2[C@@H](COC[C@H](O)CN2C(=O)Nc2ccc3c(c2)OCO3)O1`, the cytotoxicity call was “inactive”. On the same count and under the same terms, next, `C[C@@H]1CN([C@H](C)CO)C(=O)c2cc(NC(=O)NC3CCCCC3)ccc2O[C@@H](C)CCCCO[C@H]1CN(C)C(=O)C1CCCCC1`: “inactive”; `Cc1noc(C)c1NC(=O)Nc1ccc2c(c1)CC(=O)N([C@H](C)CO)C[C@@H](C)[C@H](CN(C)S(=O)(=O)c1ccccc1)O2`: “inactive”; `Cc1noc(C)c1S(=O)(=O)Nc1ccc2c(c1)C(=O)N([C@@H](C)CO)C[C@@H](C)[C@@H](CN(C)S(=O)(=O)c1cn(C)cn1)OCCCC[C@H](C)O2`: “inactive”. Same read-out and setting: in the case of `COC(CNC(=O)C1CCN(S(=O)(=O)c2cccc3nsnc23)CC1)OC` it was “inactive”. Take `Cc1noc(C)c1S(=O)(=O)N(C)C[C@@H]1Oc2ccc(NS(=O)(=O)c3cccs3)cc2CC(=O)N([C@@H](C)CO)C[C@@H]1C`: the cytotoxicity call was “inactive”. The same measure, in the same setting: in the case of `COc1ccc(S(=O)(=O)Nc2cccc3c2O[C@@H](CN(C)C(=O)NC(C)C)[C@@H](C)CN([C@@H](C)CO)C3=O)cc1` it was “inactive”; in that of `Cc1ccc(S(=O)(=O)Nc2ccc3c(c2)CC(=O)N([C@H](C)CO)C[C@@H](C)[C@H](CN(C)Cc2ccc(Cl)c(Cl)c2)O3)cc1`, “inactive”; in that of `COc1ccc(NC(=O)N(C)C[C@@H]2OCCCC[C@@H](C)Oc3ccc(NS(=O)(=O)c4ccc(Cl)cc4)cc3C(=O)N([C@@H](C)CO)C[C@@H]2C)cc1`, “inactive”.

With `C[C@@H]1CCCCO[C@@H](CN(C)Cc2ccccc2)[C@H](C)CN([C@@H](C)CO)C(=O)c2cc(NC(=O)CCC(F)(F)F)ccc2O1`, the cytotoxicity call is “inactive”. Same read-out and setting: in the case of `COc1ccc(S(=O)(=O)Nc2ccc3c(c2)C(=O)N([C@@H](C)CO)C[C@H](C)[C@H](CN(C)C(=O)Nc2c(C)noc2C)O3)cc1` it was “inactive”; in that of `Cl.NCCCC(N)(C(=O)O)C(F)F.O` (stereo not given), “inactive”.
